# Results: paper PMC4336329 (PLoS ONE, 2015)
# Screen size: about 310,000 compounds; about 2,200 (0.71%) showed an effect of 50% or more. Effects have a minus sign here. The list shows a part of the results. Where a SMILES comes first, the peptide text is derived from it. The star is where a group is joined. Boc = CC(C)(C)OC(=O)*; OBn = c1ccc(CO*)cc1
# Molecular target: human ether-à-go-go-related gene (hERG) potassium channel (human, UniProt Q12809)
# Test: primary screen, population patch clamp on CHO cells stably expressing hERG
# human ether-à-go-go-related gene (hERG) potassium channel, sequence (Q12809 whole entry, looked up): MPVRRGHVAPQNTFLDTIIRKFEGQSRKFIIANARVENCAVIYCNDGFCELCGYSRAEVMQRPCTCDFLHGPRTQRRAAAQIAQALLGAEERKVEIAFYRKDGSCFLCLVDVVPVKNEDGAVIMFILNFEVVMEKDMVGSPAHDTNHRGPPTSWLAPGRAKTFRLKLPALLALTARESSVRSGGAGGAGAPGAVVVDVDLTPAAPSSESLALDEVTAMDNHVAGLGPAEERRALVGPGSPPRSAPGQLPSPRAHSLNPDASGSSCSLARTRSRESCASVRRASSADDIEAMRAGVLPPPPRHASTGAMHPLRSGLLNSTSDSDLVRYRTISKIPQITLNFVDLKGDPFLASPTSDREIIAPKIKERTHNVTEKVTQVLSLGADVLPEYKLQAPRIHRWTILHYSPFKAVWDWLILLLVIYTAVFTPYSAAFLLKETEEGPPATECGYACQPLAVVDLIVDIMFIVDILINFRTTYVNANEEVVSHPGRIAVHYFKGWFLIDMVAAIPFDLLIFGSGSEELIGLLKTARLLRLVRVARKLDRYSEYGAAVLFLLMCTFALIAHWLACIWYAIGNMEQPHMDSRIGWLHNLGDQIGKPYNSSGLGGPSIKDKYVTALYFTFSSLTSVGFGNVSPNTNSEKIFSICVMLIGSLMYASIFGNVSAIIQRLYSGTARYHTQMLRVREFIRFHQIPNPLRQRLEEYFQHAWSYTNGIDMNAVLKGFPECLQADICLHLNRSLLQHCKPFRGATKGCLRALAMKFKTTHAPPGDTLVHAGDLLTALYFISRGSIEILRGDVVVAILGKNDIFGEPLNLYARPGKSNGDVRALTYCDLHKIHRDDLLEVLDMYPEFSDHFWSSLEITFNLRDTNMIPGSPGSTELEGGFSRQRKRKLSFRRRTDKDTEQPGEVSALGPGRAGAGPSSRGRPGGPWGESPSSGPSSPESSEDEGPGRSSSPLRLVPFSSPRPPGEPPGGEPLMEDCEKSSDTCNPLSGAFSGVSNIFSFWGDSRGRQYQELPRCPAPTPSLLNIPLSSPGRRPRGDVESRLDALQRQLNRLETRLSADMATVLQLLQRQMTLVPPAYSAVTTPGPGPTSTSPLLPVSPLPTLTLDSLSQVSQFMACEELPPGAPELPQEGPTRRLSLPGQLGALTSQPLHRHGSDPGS
row,SMILES,"hERG current change (%, negative = inhibition) at 1uM"
1,Cc1ccc(S(=O)(=O)N2CCN(C(=O)COC(=O)CNC(=O)c3ccccc3)CC2)c(C)c1,5.56%
2,COc1cc2nc(Cl)nc(N3CCCCC3)c2cc1OC,6.38%
3,COc1ccc(CCNCC(O)Cn2c3ccccc3c3ccccc32)cc1OC (stereo not drawn),18.5%
4,Cn1cc(/C=N/NC(N)=S)c2ccccc21,9.98%
5,Cc1ccc(NC(=O)CN2C(=O)NC(Cc3c[nH]c4ccccc34)C2=O)cc1S(=O)(=O)N1CCCCC1 (stereo not drawn),-8.36%
6,Cc1cc(=O)oc2c(C)c(OCC(=O)N3C[C@H]4C[C@@H](C3)c3cccc(=O)n3C4)ccc12,0.758%
7,Cc1cc(C)c2c(CN3CCN(Cc4ccc5c(c4)OCO5)CC3)cc(=O)oc2c1C,2.67%
8,CCN(C(=O)c1ccco1)c1nc(CC(=O)Nc2ccc(Cl)cc2)cs1,9.87%
9,O=C(COc1ccccc1O)Nc1ccc(Cl)cc1,8.37%
10,COc1ccccc1C(CNC(=O)c1ccc(NS(=O)(=O)c2ccc(F)c(C)c2)cc1)N(C)C (stereo not drawn),1.09%
11,O=C(CSc1nc2ccccc2c(=O)n1-c1ccccc1)NCC1CCCO1 (stereo not drawn),18.1%
12,CSc1ncc(C(=O)Nc2cccc(C)c2C)c(C)n1,4.46%
13,CC(=O)c1ccccc1NC(=O)COC(=O)/C=C/c1ccc(C)o1,4.12%
14,Cc1c(NC(=O)C(C)OC(=O)COc2ccc(C#N)cc2)c(=O)n(-c2ccccc2)n1C (stereo not drawn),-15%
15,CCOC(=O)c1cnc(Nc2ccc(OCC)cc2)nc1C,13%
16,N#CC(C(=O)NCCc1ccccc1)c1nc2ccccc2nc1N1CCCCC1 (stereo not drawn),4.11%
17,CCCC(O)(CCN(C)C)c1ccc(OC)cc1 (stereo not drawn),9.83%
18,O=C(CSc1nccc(=O)[nH]1)c1cc2ccccc2o1,10%
19,COc1ccccc1CNC(=O)CCCc1ccccc1,5.66%
20,CC1CCN(CC2C(=O)O[C@@H]3C[C@@]4(C)CCC[C@H](C)C4=C[C@H]23)CC(C)(C)C1 (stereo partly drawn),11.3%
21,O=S(=O)(NCC(c1cccs1)N1CCc2ccccc2C1)c1ccccc1 (stereo not drawn),-0.251%
22,Cn1nc(C(=O)Nc2ccc(Cl)c(S(=O)(=O)N3CCOCC3)c2)c2ccccc2c1=O,8.15%
23,Cc1ccc(C(=O)Nc2ccnc(-c3ccncc3)n2)cc1,10.9%
24,CC(C)CC(NC(=O)C(NC(=O)OC(C)(C)C)C(C)C)C(=O)NC(CCC(=O)OCc1ccccc1)C(N)=O (stereo not drawn) (Boc-Val-Leu-Glu(OBn)-NH2; configuration not given here),6.39%
